# According to PubChem BioAssay AID1345083 (National Center for Advancing Translational Sciences (NCATS), 2018):
# Among all 94,000 compounds or so, about 6,200 (6.6%) were called active. This list was built around the results that the source calls inconclusive (neither active nor inactive); the mix of calls is not that of the screen. Calls come from the whole dose curve; as a rule, active = well fitted inhibition curve with a large enough effect; inconclusive = small, poorly fitted or top-dose-only effect; inactive = flat fitted curve, though single readings scatter. Potencies of inconclusive entries are doubtful fits and often do not repeat.
# Experiment: Cytotoxic Profiling in HEK 293 Cell Line of Diverse Libraries Using Quantitative High-Throughput Screening; note: nearly all actives have a fitted effect of over 60% in size
# Conditions: HEK 293 viability, ATP luminescence (CellTiter-Glo), 48-72 h; activity change, negative = cytotoxicity: at 115 µM (top of the series) unless noted; series mostly up to 115 µM
# In short: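 HEK 293 cells seeded at 250 cells/well were exposed to compound for 48 or 72 hr at 37 degree Celsius. Viability taken as ATP content by CellTiter-Glo luminescence.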
# % is set by controls: 0 for no effect and ±100 for the full control effect; potency is the fitted concentration of half-maximal effect; tags give direction and shape of the fitted curve.
Structure (SMILES),"activity change, negative = cytotoxicity",Potency,outcome
CCN(CC)C(=O)CCC1CCN(C(=O)c2ccccc2F)CC1,inactive: -9.97%,,
COc1cccc(-c2cc(C(=O)N3CCN(C(C)=O)CC3)c3cnn(C)c3n2)c1,inactive: -18.6%,,
COCCOc1cc(=O)n2c(c1C(=O)NC1CCCCC1)CCOCC2,inactive: -22.6%,,
CN(C)C(=O)c1cc2c(s1)CCC(C(=O)N1CCN(c3cccc(Cl)c3)CC1)C2 (centres undefined),,"inconclusive: 39.8 µM [inhibitor, full curve, poor fit]",
CC(C)CNC(=O)c1ccc2nnc(-c3cc[nH]c3)n2c1,inactive: 4.99% [at 172 µM],,
CCC1=C(C(=O)OC)C(c2cccc(F)c2)N2C(CC(=O)NCCc3cccs3)=CSC2=N1 (centres undefined),,"inconclusive: 50.1 µM [inhibitor, partial curve, poor fit]",
O=C(c1cnc2c(c1)N([S+](=O)([O-])c1cccnc1)CCC2)N1CCCC[C@@H]1c1ccccc1,,"inconclusive: 50.1 µM [inhibitor, partial curve, poor fit]",
CC(C)S(=O)(=O)N1CC(Oc2ccc(-c3noc(C4CCOCC4)n3)cc2)C1,,"inconclusive: 100 µM [inhibitor, single point]",
CC1=C[C@@H](CO)[C@H](C(C)C)C[C@H]1Cc1nnc(Cc2c[nH]c3ccccc23)o1,,"inconclusive: 100 µM [inhibitor, partial curve]",
Cc1cc(Cl)ccc1NC(=O)C1CCN(C(=O)c2ncn3c2COC(c2ccc(F)cc2)C3)CC1 (centres undefined),,"inconclusive: 89.1 µM [inhibitor, partial curve]",
COc1ccc(OC)c(CN2CCC3(COC(=O)N3Cc3ccccc3)C2)c1 (centres undefined),inactive: -28.8% [at 172 µM],,
Cc1cccc(N2Cc3c(NCCO)ncnc3N(C)CC2=O)c1,inactive: 2.56% [at 172 µM],,
CN(C)C(=O)C1CCN(Cc2ccccc2-c2cccnc2)CC1,inactive: -7.32% [at 172 µM],,
CCOC(=O)CNC(=O)c1cc(-c2ccc(Cl)cc2)cn1C,inactive: -16.3%,,
COc1cccc(-c2cc(C(=O)NCCc3cnc[nH]3)c3c(c2)N(C)CCO3)c1OC,,"inconclusive: 112 µM [inhibitor, single point]",
CC(C)c1cc(CN(C)Cc2cn[nH]c2-c2ccc(F)cc2)no1,,"inconclusive: 89.1 µM [inhibitor, single point]",
CCCCOC(=O)C1=CN(Cc2ccccc2)S(=O)(=O)N=C1C,,"inconclusive: 70.8 µM [inhibitor, single point]",
CCCCCNC(=O)Cc1csc2nc(C)c(-c3cc(C)n(-c4cccc(C)c4C)n3)c(=O)n12,,"inconclusive: 39.8 µM [inhibitor, partial curve, poor fit]",
CN(Cc1cnc2ccccc2n1)C(=O)c1cccc(CCC(C)(C)O)c1,inactive: -21.7%,,
COc1ccc(NC(=O)O[C@@H]2CO[C@H]3[C@@H]2OC[C@@H]3NS(=O)(=O)c2ccc3ccccc3c2)cc1,,"inconclusive: 89.1 µM [inhibitor, single point]",
Cc1ccsc1C(=O)N1CC(Oc2cccc(-c3nc(-c4ccccc4)no3)c2)C1,,"inconclusive: 79.4 µM [inhibitor, partial curve, poor fit]",
O=C(N[C@@H]1CCOC[C@H]1OCc1cscn1)c1ccc(Cl)s1,inactive: -17.8%,,
C=CCN(C)C(=O)C[C@@H]1c2nc(NC(=O)Cc3ccc(OC)cc3)sc2C[C@@H]2[C@](C)(CO)[C@H](O)CC[C@]21C,,"inconclusive: 44.7 µM [inhibitor, partial curve, poor fit]",

Structure (SMILES),"activity change, negative = cytotoxicity",Potency,outcome
COc1ccc(N2Cc3c(NCC4CCCCC4)ncnc3N(C)CC2=O)cc1,,"inconclusive: 89.1 µM [inhibitor, partial curve, poor fit]",
CC(Cc1cccnc1)Nc1cc(-c2ccccc2F)nc2ccnn12 (centres undefined),,active: 79.4 µM,
O=C(c1ccc(Cl)cc1)N1CC2(CCN(CC3CCCCC3)CC2)Cc2ccccc21,,"inconclusive: 39.8 µM [inhibitor, partial curve, poor fit]",
Cc1ccc(-n2cc(CN3CCn4nc(C(O)c5nccn5C)cc4C3)cn2)cc1 (centres undefined),inactive: -7.62%,,
O=C([C@H]1CCCN1C(=O)C1CC1)N1CCC(N2CCOC2=O)CC1,,,inactive
COCc1cn([C@H]2CO[C@H]3[C@@H]2OC[C@@H]3N)nn1,inactive: 3.59% [at 230 µM],,
O=[S+]([O-])(NC1CCN(Cc2ccc(-c3ccsc3)cc2)C1)c1ccccc1 (centres undefined),,"inconclusive: 31.6 µM [inhibitor, partial curve, poor fit]",
Cc1nc(N2CCCC3(CN(C)C(=O)O3)C2)cc(-n2cccn2)n1 (centres undefined),,,inactive
CCc1nccc(CN2CCC(c3nn(C)c(=O)n3CC)CC2)n1,inactive: -1.93%,,
COc1ccccc1C(=O)N1CCC(n2cnnc2C2CC2)CC1,inactive: -2.05%,,
CCc1nc2c(c(-c3ccc(Cl)cc3)n1)CN([S+](=O)([O-])c1ccc(C)cc1)CC2,,,inactive
Cc1cc(C)cc(NC(=O)Cn2c(N3CCN(c4ccccc4)CC3)nc(C)cc2=O)c1,,"inconclusive: 50.1 µM [inhibitor, partial curve, poor fit]",
CCCC(=O)N1Cc2ccccc2CC2(CCCCN2Cc2cccnc2)C1 (centres undefined),inactive: -24.9%,,
O=C(c1csc(N2CCN(c3ccccc3)CC2)n1)N1CCN(C2CCCCC2)CC1,,"inconclusive: 56.2 µM [inhibitor, partial curve, poor fit]",
COCC1CN(Cc2ccc(OC)cc2)CC12CCNCC2 (centres undefined),,"inconclusive: 56.2 µM [inhibitor, partial curve, poor fit]",
Cc1cn2nnc(C(=O)NCc3ccc(OC(C)C)cc3)c2c(=O)[nH]1,,"inconclusive: 79.4 µM [inhibitor, single point]",
Cc1ccc(Cn2nc3n(c2=O)CCN(Cc2cc(C)ccc2C)C3=O)cc1,,"inconclusive: 89.1 µM [inhibitor, single point]",
COc1cccc(-c2cccc(C(=O)N3CCN([S+](=O)([O-])c4cccs4)CC3)c2)c1,,"inconclusive: 79.4 µM [inhibitor, partial curve, poor fit]",
O=C1COCCN1C1CCN(Cc2ccccc2)CC1,,inactive,
Cc1ccccc1C(=O)N1CCCN(c2cc(-c3ccccc3)[nH]n2)CC1,,"inconclusive: 50.1 µM [inhibitor, partial curve]",
C[C@H]1CCCN1C(=O)c1nnc(COc2ccc(C#N)cc2)n1-c1cccnc1,,"inconclusive: 56.2 µM [inhibitor, single point]",
Cc1ccc(NC(=O)Cn2c(-c3ccccc3)nc(C)c(CCO)c2=O)cc1Cl,,"inconclusive: 35.5 µM [inhibitor, partial curve, poor fit]",
COc1ccc(C(=O)NC2CCCN(CCn3nc4n(c3=O)CCCC4)C2)cc1 (centres undefined),inactive: -3.44%,,

Structure (SMILES),"activity change, negative = cytotoxicity",Potency,outcome
CC(C)CCN1CCC(N2CCN(C(=O)c3ccc(F)cc3)CC2)C1=O (centres undefined),,,inactive
C[S+](=O)([O-])NCCn1ccc2cc(OC3CCN(c4ncccn4)CC3)cnc21,,"inconclusive: 100 µM [inhibitor, partial curve]",
CCOc1ccc(NC(=O)C2(Cc3cccnc3)CCCCC(=O)N2)cc1 (centres undefined),inactive: -22.4%,,
O=C(c1ccc2c(c1)OCO2)N1CCC2(CC1)N=C(c1ccccc1)NO2,inactive: -9.08%,,
CCOc1ccc(NC(=O)Cn2ccn3nc4c(c3c2=O)CCCCC4)cc1,,"inconclusive: 100 µM [inhibitor, single point]",
C[C@@H](NC(=O)C1CC1)c1c(-c2ccc(F)cc2)noc1C(=O)O,inactive: -11.9% [at 172 µM],,
COc1ccc(-c2ccc(C(=O)N3CCC(NC(=O)Nc4ccc(C)c(F)c4)CC3)cc2)nn1,inactive: -29.2%,,
O=C(NC1CCN(Cc2cccc(-c3ccc(F)c(F)c3)c2)CC1)c1ccc(Cl)cc1,inactive: 1.69%,,
Cc1c(Cl)cccc1NC(=O)Cn1ccn2nc(-c3ccc(F)cc3)c(CO)c2c1=O,inactive: -3.29%,,
COc1ccc(C2=NOC3(CCCN([S+](=O)([O-])c4cccc(OC)c4)C3)C2)cc1 (centres undefined),,"inconclusive: 50.1 µM [inhibitor, partial curve, poor fit]",
CN1CCCN(C(=O)c2ccc(Cl)cc2)c2ccccc21,,"inconclusive: 56.2 µM [inhibitor, partial curve, poor fit]",
CCOC(=O)CCNC(=O)N1CCCCCCNC(=O)[C@@H]2C[C@@H](c3nc(-c4cccnc4)no3)C[C@@H]21,inactive: -7.6%,,
O=C(NCc1ccccc1Cl)c1cc2n(n1)CC(c1ccc(Cl)cc1)OC2 (centres undefined),,"inconclusive: 50.1 µM [inhibitor, partial curve, poor fit]",
Cc1c(-c2ccccc2F)[nH]c2ccc(CNC(=O)C3C=CCN3)cc12 (centres undefined),,"inconclusive: 56.2 µM [inhibitor, partial curve, poor fit]",
CN(Cc1ccc2nsnc2c1)c1cc(C2CC(O)C2)ncn1 (centres undefined),,"inconclusive: 28.2 µM [inhibitor, full curve]",
COc1ccc(-c2cc(-c3cccc(CO)c3)cn3cncc23)cn1,,"inconclusive: 44.7 µM [inhibitor, full curve]",
Cc1ccc(-c2cn3cc(C(=O)NCC(C)C)nc3s2)cc1,,"inconclusive: 112 µM [inhibitor, partial curve, poor fit]",
CN1c2cc(C(=O)N3CCC(C(N)=O)CC3)ccc2C(=O)N2CCCCC21 (centres undefined),inactive: 4.63%,,
CC(C)CN(Cc1ccncc1)C1CN(C(=O)c2ccco2)C1,inactive: -12.8%,,
COc1ccccc1CC(=O)Nc1ccc2c(N3CCCCC3)ncnc2c1,,active: 25.1 µM,
Cc1ccc(C(=O)N[C@H]2CO[C@H]3[C@@H]2OC[C@H]3OC(=O)Nc2ccccc2)cc1,,"inconclusive: 70.8 µM [inhibitor, full curve, poor fit]",
CCn1cc(C(=O)N2CCn3nc(C(=O)Nc4ccccc4)cc3C2)c(C)n1,,"inconclusive: 44.7 µM [inhibitor, partial curve, poor fit]",
COc1ccccc1Nc1ccnc(N2CCCC2C(=O)N(C)C)n1 (centres undefined),inactive: 2.46%,,
